The other results are listed elsewhere or left out. Cleavage of a single-stranded DNA pool by Rep nickase domains was read by sequencing at 3 µM enzyme and 37 °C for 1 h; the strands have 90 letters, of which the middle is given. Uncut reads are compared with the no-enzyme pool on a log2 scale; more negative means more cut, near 0 not cut, and no call is made. Counts are relative to all reads; values above 0 arise when much of the pool is cut.
Assays:
Assay in all cases: uncleaved DNA left, log2 of reads against the no-enzyme library (log2 ratio); higher = less cleavage (more negative = more Rep cleavage of the k-mer); sequences stand for … in CTCGTCCG…ACCGGAGA
[1] = test system: T1, Rep nickase domain of Muscovy duck circovirus
T1 sequence (residues 1-111 of Rep, tag left off): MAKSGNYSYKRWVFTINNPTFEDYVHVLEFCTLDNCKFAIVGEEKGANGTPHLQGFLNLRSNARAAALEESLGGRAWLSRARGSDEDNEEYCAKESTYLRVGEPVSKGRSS
Experimental: (§1)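 A pool of 90-nt single-stranded DNAs with seven random bases just before the constant AC of the nick site (name = the seven bases) was cut by 3 µM recombinant His6-SUMO-tagged Rep nickase domain (300 nM DNA, 50 mM HEPES pH 8.0, 50 mM NaCl, 1 mM MnCl2, 1 h, 37 °C, three replicates). Uncut DNA was amplified and sequenced.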

[2] = test system: T2, Rep nickase domain of banana bunchy top virus
T2 sequence (residues 1-94 of Rep, tag left off): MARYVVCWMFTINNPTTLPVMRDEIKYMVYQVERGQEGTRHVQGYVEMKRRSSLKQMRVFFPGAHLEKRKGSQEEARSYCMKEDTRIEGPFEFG
Experimental: as §1

[3] = test system: T3, Rep nickase domain of cabbage leaf curl virus
T3 sequence (residues 1-116 of Rep, tag left off): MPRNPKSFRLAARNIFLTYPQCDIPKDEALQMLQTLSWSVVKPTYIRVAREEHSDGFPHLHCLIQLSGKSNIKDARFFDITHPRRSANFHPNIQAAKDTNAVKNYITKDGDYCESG
Experimental: as §1

[4] = test system: T4, Rep nickase domain of chickpea chlorotic dwarf virus
T4 sequence (residues 1-124 of Rep, tag left off): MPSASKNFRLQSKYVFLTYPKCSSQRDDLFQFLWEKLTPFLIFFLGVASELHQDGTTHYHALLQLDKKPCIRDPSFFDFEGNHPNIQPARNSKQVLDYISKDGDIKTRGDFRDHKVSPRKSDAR
Experimental: as §1

[5] = test system: T5, Rep nickase domain of faba bean necrotic yellows virus
T5 sequence (residues 1-98 of Rep, tag left off): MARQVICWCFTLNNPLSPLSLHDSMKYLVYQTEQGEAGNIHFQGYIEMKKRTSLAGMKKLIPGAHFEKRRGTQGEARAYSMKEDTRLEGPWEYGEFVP
Experimental: as §1

[6] = test system: T6, Rep nickase domain of maize striate mosaic virus
T6 sequence (residues 1-117 of Rep, tag left off): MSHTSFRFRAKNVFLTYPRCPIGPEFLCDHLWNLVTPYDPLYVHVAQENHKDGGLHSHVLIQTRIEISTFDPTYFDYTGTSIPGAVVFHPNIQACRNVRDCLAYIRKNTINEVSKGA
Experimental: as §1

[7] = test system: T7, Rep nickase domain of porcine circovirus 2
T7 sequence (residues 2-116 of Rep, tag left off): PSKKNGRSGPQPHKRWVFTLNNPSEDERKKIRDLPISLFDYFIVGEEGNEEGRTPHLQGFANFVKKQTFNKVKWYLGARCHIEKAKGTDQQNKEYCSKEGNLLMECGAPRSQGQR
Experimental: as §1

[8] = test system: T8, Rep nickase domain of tomato golden mosaic virus
T8 sequence (residues 1-124 of Rep, tag left off): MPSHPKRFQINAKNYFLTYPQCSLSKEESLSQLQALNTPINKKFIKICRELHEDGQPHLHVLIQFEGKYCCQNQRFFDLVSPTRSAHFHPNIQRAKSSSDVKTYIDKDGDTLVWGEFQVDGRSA
Experimental: as §1

[9] = test system: T9, Rep nickase domain of tomato yellow leaf curl virus
T9 sequence (residues 1-136 of Rep, tag left off): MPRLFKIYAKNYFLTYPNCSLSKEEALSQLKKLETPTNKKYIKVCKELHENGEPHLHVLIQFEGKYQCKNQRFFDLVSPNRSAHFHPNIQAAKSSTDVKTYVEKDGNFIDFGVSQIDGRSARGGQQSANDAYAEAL
Experimental: as §1

[10] = test system: T10, Rep nickase domain of wheat dwarf virus
T10 sequence (residues 1-137 of Rep, tag left off): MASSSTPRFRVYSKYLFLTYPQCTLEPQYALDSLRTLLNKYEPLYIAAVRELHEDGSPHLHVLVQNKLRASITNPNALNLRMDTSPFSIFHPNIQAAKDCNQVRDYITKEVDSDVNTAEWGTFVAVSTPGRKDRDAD
Experimental: as §1

Sequence | uncleaved DNA left (log2) [1] | uncleaved DNA left (log2) [2] | uncleaved DNA left (log2) [3] | uncleaved DNA left (log2) [4] | uncleaved DNA left (log2) [5] | uncleaved DNA left (log2) [6] | uncleaved DNA left (log2) [7] | uncleaved DNA left (log2) [8] | uncleaved DNA left (log2) [9] | uncleaved DNA left (log2) [10]
AGAGGAG | 0.0794 | 0.0603 | -0.0154 | 0.811 | 0.0465 | 0.312 | 0.206 | 0.0656 | 0.00818 | 0.0723
GACGGTA | 0.0136 | -0.113 | 0.373 | 0.337 | -0.0894 | 0.87 | 0.0722 | 3.1e-05 | -0.0997 | 0.00135
CTGTGTT | -2.85 | -1.94 | -1.17 | -2.39 | -2.16 | -0.599 | -3.24 | -0.361 | -0.029 | -1.14
TCCGAGA | -0.0315 | 0.0298 | 0.843 | 1.6 | -0.00409 | 2.12 | 0.0122 | 0.0399 | -0.0117 | 0.0553
TAATTAT | -3.58 | -0.677 | -4.6 | -3.56 | 0.169 | -3.33 | -4.09 | -4.14 | -1.79 | -4.72
GTGAAGC | -0.0131 | 0.0915 | 0.183 | 0.734 | -0.0193 | 1.34 | -0.0187 | 0.00411 | -0.014 | -0.00708
CGGCTTT | -0.0542 | -0.275 | 0.0454 | -0.368 | -0.253 | 0.663 | -0.26 | -0.344 | -0.246 | -0.0715
GTTTCAC | 0.0906 | 0.0942 | 0.425 | 0.991 | -0.000649 | 1.79 | 0.151 | 0.0696 | 0.156 | 0.102
AGCACGG | -0.0747 | 0.0597 | 0.0996 | 0.674 | 0.144 | 1.71 | 0.147 | 0.082 | 0.0366 | 0.00975
GTTGGCA | 0.0301 | 0.167 | 0.381 | 0.956 | 0.0807 | 1.58 | 0.127 | 0.162 | 0.119 | 0.073
AACAACG | 0.0258 | 0.0298 | -0.738 | -0.44 | 0.065 | -0.867 | 0.197 | 0.0206 | 0.044 | -0.0163
CTTAAAC | 0.00059 | -0.0341 | -0.0649 | -0.566 | -0.0641 | -0.712 | -0.00198 | -0.033 | -0.142 | -0.0294
TATGGCA | 0.0415 | 0.0612 | -0.152 | -0.728 | -0.00341 | -0.821 | -0.0058 | 0.0401 | 0.101 | 0.0368
AGTGATC | 0.0376 | -0.0299 | 0.0292 | 0.581 | 0.0345 | 0.915 | 0.0675 | 0.0318 | -0.164 | -0.0552
CGTTGGC | 0.000142 | -0.115 | -0.555 | -0.48 | -0.0437 | -0.966 | -0.00423 | -0.209 | 0.0175 | -0.214
CCTCTCG | 0.159 | 0.185 | -0.691 | 0.068 | 0.0656 | -0.82 | 0.017 | 0.00534 | -0.1 | -0.0865
TAGATCG | 0.109 | -0.0126 | -0.877 | -0.383 | 0.0127 | -1.23 | 0.0349 | -0.0648 | 0.0635 | -0.0149
TGGTGTA | 0.0236 | 0.161 | 0.321 | 0.241 | 0.108 | 1.07 | -0.0623 | 0.104 | 0.159 | 0.094
TGCCAAG | -0.266 | -0.229 | -0.671 | -0.593 | -0.137 | -0.949 | -0.0977 | -0.0175 | -0.205 | -0.117
AGCAGTT | 0.165 | 0.0606 | 0.0297 | -0.655 | 0.00255 | 0.432 | -0.332 | 0.121 | -0.00458 | 0.114
CAGGCGC | -0.186 | -0.0717 | -0.812 | -0.68 | -0.0333 | -0.771 | 0.0723 | -0.124 | -0.0565 | -0.233
CAACATC | 0.0373 | 0.101 | -0.232 | -1.38 | 0.0405 | -0.734 | 0.1 | -0.0838 | 0.00502 | 0.0635
ATCGGAG | 0.0377 | -0.0296 | -0.246 | 0.0695 | 0.0317 | -0.729 | 0.191 | 0.0552 | -0.0586 | -0.0135
TCGAATT | 0.172 | -0.0319 | -0.036 | -2.05 | -0.0281 | -0.0804 | -2.33 | -0.034 | -0.055 | 0.0131
AACGGTA | 0.0407 | -0.0453 | 0.151 | 0.426 | 0.0326 | 0.993 | -0.052 | -0.0295 | -0.101 | -0.0528
TATAACT | -0.588 | -1.05 | -1.2 | -3.39 | 0.0182 | -0.828 | -2.92 | -0.0257 | 0.00902 | -0.092
CGGCCCG | 0.0424 | -0.0578 | -0.625 | -0.269 | -0.0753 | -0.692 | -0.0104 | -0.143 | -0.0834 | -0.17
CAATCAC | 0.00305 | 0.117 | -1.82 | -1.97 | 0.0215 | -0.746 | 0.0922 | -0.336 | 0.0508 | -0.32
CCTGGAT | 0.00751 | -0.0352 | 0.246 | 1.57 | 0.19 | 1.91 | 0.219 | 0.217 | -0.117 | -0.0349
GTGCTTC | 0.000755 | 0.0178 | 0.307 | 0.854 | 0.0186 | 1.88 | 0.105 | 0.127 | 0.0541 | 0.0879

Source: the supplement of paper PMC7826260
